Over roughly 81,000 sequences, “one-hybrid fitness for binding NBS DNA” has its median near -0.1; the highest 2% begin near 0.36. This is one part of the list.
B1: Caulobacter ParB omega fusion; a variant is named by its letters at X, in order, B8GW30 (parent)
chain: MESVVVGEPGMSEGRRGLGRGLSALLGEVDAAPAQAPGEQLGGSREAPIEILQRNPDQPRRTFREEDLEDLSNSIREKGVLQPILVRPSPDTAGEYQIVAGERAWRAAQRAGLKTVPIMVRELDDLAVLEIGIIENVQRADLNVLEEALSYKVLMEKFERTQENIAQTIGKSXSHVANXMRLLXLPDEVQSYLVSGELTAXHARAIAAAADPVALAKQIIEGGLSVRETEALARKAPNLSAGKSKGGRPPRVKDTDTQALESDLSSVLGLDVSIDHRGSTGTLTITYATLEQLDDLCNRLTRGI

Variants of: B1
Test: one-hybrid fitness for binding NBS DNA (the Noc-binding site; scaled: cognate 1, non-cognate 0); higher = stronger binding
Settings: with NBS DNA site
How it was run: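 Bacterial one-hybrid selection in E. coli USO rpoZ- hisB- pyrF- with a HIS3 reporter carrying the site 19 bp from the promoter, screening Caulobacter ParB libraries with four specificity codons randomised (NNS). Cells grew 48 hours at 37°C on M9-minus-histidine plus 0.1 mM IPTG and 5 mM 3-AT. Plasmids before and after selection were Illumina-sequenced, three replicate libraries pooled, and variants under 10 reads dropped. Fitness is the log change in variant-to-wild-type read ratio, rescaled to cognate 1, non-cognate 0.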

Variant	one-hybrid fitness for binding NBS DNA
NHTT	≤ 0.2
LIIY	≤ 0.2
GFKR	≤ 0.2
VWVG	≤ 0.2
KAIG	≤ 0.2
NWTE	≤ 0.2
PGVI	≤ 0.2
VARA	≤ 0.2
PYRF	≤ 0.2
VARG	≤ 0.2
GLQL	≤ 0.2
VCNS	≤ 0.2
NLGN	≤ 0.2
REFM	≤ 0.2
FIST	≤ 0.2
ISID	≤ 0.2
NVQA	≤ 0.2
GPVV	≤ 0.2
RQFR	0.262
TMLW	≤ 0.2
ICDW	≤ 0.2
HQVE	≤ 0.2
KYTT	≤ 0.2
DDET	≤ 0.2
TCRT	≤ 0.2

Variant	one-hybrid fitness for binding NBS DNA
ISET	≤ 0.2
TVSH	≤ 0.2
YVKS	≤ 0.2
STKS	≤ 0.2
TRTM	≤ 0.2
GKAV	≤ 0.2
MDMP	≤ 0.2
GWDG	≤ 0.2
RAMW	≤ 0.2
SQRK	≤ 0.2
YRVL	≤ 0.2
RMCY	≤ 0.2
AYPS	≤ 0.2
DSAC	≤ 0.2
PHCC	≤ 0.2
IMRG	≤ 0.2
VELN	≤ 0.2
CPGV	≤ 0.2
NDYG	≤ 0.2
RHNK	≤ 0.2
QAQK	≤ 0.2
TENT	≤ 0.2
DRLM	≤ 0.2
NSTF	≤ 0.2
QFTM	≤ 0.2

Variant	one-hybrid fitness for binding NBS DNA
IYRR	0.273
RAHA	≤ 0.2
YISN	≤ 0.2
HVAL	≤ 0.2
HLAT	≤ 0.2
FTRS	≤ 0.2
MHNC	≤ 0.2
GFGM	≤ 0.2
GICF	≤ 0.2
RITV	0.342
GLDE	≤ 0.2
RTCI	≤ 0.2
HRNQ	≤ 0.2
DPKR	≤ 0.2
DPPL	≤ 0.2
TMNS	≤ 0.2
VAFW	≤ 0.2
RRIG	0.289
NSHL	0.297
RQMT	0.352
HHPQ	≤ 0.2
HFIF	≤ 0.2
LPAV	≤ 0.2
KSGV	≤ 0.2
RGGV	≤ 0.2

Variant	one-hybrid fitness for binding NBS DNA
QCKS	0.711
IQEG	≤ 0.2
VWQV	≤ 0.2
YRAL	≤ 0.2
SEQI	≤ 0.2
CSFR	≤ 0.2
SDMC	≤ 0.2
VLLF	≤ 0.2
FLKG	≤ 0.2
CERL	≤ 0.2
MRLV	≤ 0.2
LDYS	≤ 0.2
VVKR	≤ 0.2
DQMK	≤ 0.2
TGVV	≤ 0.2
GRDL	≤ 0.2
PCPW	≤ 0.2
SQKH	≤ 0.2
VMIG	≤ 0.2
PKYA	≤ 0.2
CCSR	≤ 0.2
HSVM	≤ 0.2
SWKG	≤ 0.2
DVAH	≤ 0.2
PIQF	≤ 0.2

Variant	one-hybrid fitness for binding NBS DNA
EADG	≤ 0.2
NSQN	≤ 0.2
RSDC	≤ 0.2
VFKC	≤ 0.2
WRHS	≤ 0.2
LANV	≤ 0.2
HDMN	≤ 0.2
QRYR	0.924
CRSD	≤ 0.2
FELR	≤ 0.2
PSKM	≤ 0.2
TDNL	≤ 0.2
GRFG	≤ 0.2
EPQC	≤ 0.2
YFVG	≤ 0.2
HWTA	≤ 0.2
QITM	≤ 0.2
QELM	≤ 0.2
SSEF	≤ 0.2
YTGA	≤ 0.2
PPHC	≤ 0.2
NCVC	≤ 0.2
RPYV	≤ 0.2
WPNL	≤ 0.2
RNFL	≤ 0.2

Variant	one-hybrid fitness for binding NBS DNA
RYWV	≤ 0.2
IIKG	≤ 0.2
EPAS	≤ 0.2
CMDY	≤ 0.2
ASSK	≤ 0.2
SGTT	≤ 0.2
PNVI	≤ 0.2
YHAS	≤ 0.2
QEYV	≤ 0.2
PLQC	≤ 0.2
SDRN	≤ 0.2
RVKW	≤ 0.2
NFMG	≤ 0.2
LKAF	≤ 0.2
VTTL	≤ 0.2
AMNE	≤ 0.2
SYFT	≤ 0.2
GATD	≤ 0.2
MGNL	≤ 0.2
ISPT	≤ 0.2
RDEL	≤ 0.2
PRNC	≤ 0.2
RQRW	≤ 0.2
YYPG	≤ 0.2
QYTQ	≤ 0.2

Variant	one-hybrid fitness for binding NBS DNA
RPNG	≤ 0.2
VPRA	≤ 0.2
CPFF	≤ 0.2
FNVC	≤ 0.2
QAGY	≤ 0.2
FAFM	≤ 0.2
SYRT	≤ 0.2
HCGR	≤ 0.2
RVNF	≤ 0.2
PLMY	≤ 0.2
PRGR	≤ 0.2
HKRR	≤ 0.2
DSDV	≤ 0.2
THST	≤ 0.2
LTIA	≤ 0.2
LKYL	≤ 0.2
ACKM	≤ 0.2
CTIW	≤ 0.2
LADR	≤ 0.2
WARG	≤ 0.2
DNHS	≤ 0.2
HAAA	≤ 0.2
CGLF	≤ 0.2
NTCS	≤ 0.2
LWHG	≤ 0.2

Variant	one-hybrid fitness for binding NBS DNA
MRTP	≤ 0.2
FSKC	≤ 0.2
RQNR	0.559
CYES	≤ 0.2
HNCS	≤ 0.2
ASRC	≤ 0.2
FNIT	≤ 0.2
TLKI	≤ 0.2
QQTD	≤ 0.2
RFYT	≤ 0.2
PDGY	≤ 0.2
NVRS	≤ 0.2
QINC	≤ 0.2
YFMR	≤ 0.2
QHKQ	0.404
KWGS	≤ 0.2
TRRQ	≤ 0.2
VHAC	≤ 0.2
LRHI	≤ 0.2
PLIL	≤ 0.2

Reference: a collection of fitness landscapes (doi:10.1016/j.celrep.2020.107928)
